Whole data set: some 110,000 compounds, median “z-score” near -0.1, cut for the highest 2% near 2. Some of the results follow. Active and inactive are the calls of the source.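 How the source made its calls: active means z-score in the third read window above 3 or below -3; inactive means the rest.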

For the assay, the target named is Metabotropic glutamate receptor 8 (Rattus norvegicus) (UniProt P70579). The assay is described as follows: rat mGluR8 modulators via GIRK flux, primary screen, cell-based, thallium flux, HTS (AID 488969). As to conditions: HEK293 rat mGluR8, GIRK (G protein-gated inwardly rectifying potassium channel) thallium flux, FluoZin2; at 10 µM; stronger effect = higher value; submaximal glutamate (EC20) added with thallium.
UniProt P70579, sequence (P70579 whole entry, looked up): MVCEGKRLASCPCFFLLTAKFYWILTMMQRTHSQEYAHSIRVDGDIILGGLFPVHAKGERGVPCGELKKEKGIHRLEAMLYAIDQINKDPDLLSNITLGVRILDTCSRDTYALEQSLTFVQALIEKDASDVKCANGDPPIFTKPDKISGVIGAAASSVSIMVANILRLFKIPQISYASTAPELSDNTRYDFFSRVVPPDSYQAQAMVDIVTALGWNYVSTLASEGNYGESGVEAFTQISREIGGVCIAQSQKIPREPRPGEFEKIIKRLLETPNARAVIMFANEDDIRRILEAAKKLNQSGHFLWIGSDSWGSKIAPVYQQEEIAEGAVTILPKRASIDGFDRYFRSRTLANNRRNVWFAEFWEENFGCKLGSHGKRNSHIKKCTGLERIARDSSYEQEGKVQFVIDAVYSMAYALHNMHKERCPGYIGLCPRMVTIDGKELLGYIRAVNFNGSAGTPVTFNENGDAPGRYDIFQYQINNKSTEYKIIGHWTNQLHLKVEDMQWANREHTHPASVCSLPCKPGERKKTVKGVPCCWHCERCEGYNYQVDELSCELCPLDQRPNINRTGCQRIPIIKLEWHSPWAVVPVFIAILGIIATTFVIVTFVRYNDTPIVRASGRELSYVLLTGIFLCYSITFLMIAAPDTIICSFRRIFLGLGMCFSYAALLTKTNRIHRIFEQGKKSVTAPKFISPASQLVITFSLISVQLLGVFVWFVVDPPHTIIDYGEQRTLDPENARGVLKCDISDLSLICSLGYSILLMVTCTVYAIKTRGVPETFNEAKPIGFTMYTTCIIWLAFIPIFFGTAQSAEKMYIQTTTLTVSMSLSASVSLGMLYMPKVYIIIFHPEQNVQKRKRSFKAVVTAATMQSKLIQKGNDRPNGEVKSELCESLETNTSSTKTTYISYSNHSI
Molecule `CCC(=O)N(Cc1ccc(S(N)(=O)=O)cc1)C1CC(=O)N(c2ccc(OC)cc2)C1=O` (centres undefined) yielded a z-score of 0.806.
Then `Cc1ccc(S(=O)(=O)CCc2ccccn2)cc1`, with -0.299.
In turn, `COc1ccc(Cc2nc3ccc(S(N)(=O)=O)cc3[nH]2)cc1OC` registered a z-score of 0.43.
Under `COCCCNC(=O)CNC(=S)N(Cc1cc(OC)c(OC)c(OC)c1)C1CCCC1` stands 0.279; under `CCOP(=O)(O)c1ccccc1OCCOc1ccccc1P(=O)(O)OCC`, -0.0166.
For the molecule `CNC(=O)CC1C(=O)N(Cc2ccccc2)C(=S)N1NC(=O)c1cccc(F)c1` (centres undefined), the z-score is -0.202.
Then `CNC(=S)NNC(=O)Cn1ccc(C)n1`, with -0.17.
On to `O=C(NCC1COc2ccccc2O1)c1ccco1` (centres undefined), for which the z-score is -0.309.
Then `CCCC(=O)Nc1cc(-c2nc3ncccc3o2)ccc1C`, with 0.726; and `CCOC(=O)N1CCN(c2c(NCCN3CCN(Cc4ccccc4)CC3)c(=O)c2=O)CC1`, with -0.338.
Then `Cc1occc1C(=O)NNC(=O)COc1ccc(Br)cc1Br`, with 1.12.
Then `CC(=O)c1c(Nc2ccc3c(c2)OCCO3)oc(C)cc1=O`, with 0.101; and `CCCCc1c(O)nc2sc3cc(OC)ccc3n2c1=O`, with 1.06.
For the molecule `CCC(=O)Nc1cccc(-c2nc3ccccc3c(=O)o2)c1`, the z-score was -0.784.
Then `Cc1ccc(NC(=S)N/N=C/c2ccc(Cl)c([N+](=O)[O-])c2)cc1`, with -0.0758; and `CCc1ccc2c(c1)/C(=C/C(=O)c1cccs1)C(=O)N2`, with -0.314; and `Cc1ccccc1CSCc1nc2ccccc2[nH]1`, with -0.127.
`COc1ccc(CCNC(=S)NC(=O)c2ccccc2)cc1OC`: the z-score was 0.202.
Under `Fc1cccc(C2NC(=S)NC3=C2N2CCC3CC2)c1` (centres undefined) stands -0.0491; under `CC(C)(C)N1CC2([N+](=O)[O-])CN(C(C)(C)C)CC([N+](=O)[O-])(C1)C2`, -0.399; under `Cc1cc(NC(=O)c2ccc(Cl)cc2)no1`, -0.394.
Under `COc1ccccc1CCn1c(N)c(C#N)c2nc3ccccc3nc21` stands -0.267.
Take `CCOC(=O)CN1C(=O)C(Sc2n[nH]c(-c3ccc(O)cc3)n2)CCc2ccccc21` (centres undefined): the z-score was -0.472.
Then `Cn1c(SCC(=O)CC(=O)Nc2ccccc2)nnc1-c1ccc(O)cc1`, with -0.391.
Then `Cc1ccc(CNC(=O)CSc2n[nH]c(N)n2)cc1`, with 0.577; and `O=C(NCCCn1ccnc1)c1cccc(S(=O)(=O)Nc2ccccc2F)c1`, with 0.215.
Under `O=C(NCc1ccco1)c1ccc2c(c1)N(Cc1ccccc1)C(=O)CS2=O` (centres undefined) stands 0.587; under `Cc1cccc(-c2noc(CN(C(=O)CCc3ccccc3)C(C)C)n2)c1`, -0.536; under `CCCN1C(=O)c2cc(C(=O)Nc3ccccc3CC)ccc2C1O` (centres undefined), 0.174.
For the molecule `Cc1ccc(Cl)cc1N1CCN(Cc2nnnn2C2CCCCC2)CC1`, the z-score is 0.0236.
Under `O=C(CNS(=O)(=O)c1c(Cl)cccc1Cl)OCC(=O)N1CCN(c2ccccc2)CC1` stands -0.44.
Under `C=CCOC(=O)C1=C(C)NC(=O)NC1c1cn(-c2ccccc2)nc1-c1cccs1` (centres undefined) stands -0.983; under `CCCN1CCN(C(=O)Cn2cccc2C(=O)c2ccccc2)CC1`, -0.154.
The molecule `CCOc1ccc(C(=O)N[C@H](C(=O)O)C(C)C)cc1` yielded a z-score of 0.285.
Then `Cc1nn(-c2ccc(Cl)c(Cl)c2Cl)c(=O)c2ccccc12`, with -0.689; and `COc1ccc(/C=N/NC(=O)c2ccccc2F)cc1CN1CCN(c2ccc(F)cc2)CC1`, with 0.728.
Under `N#CC1=C(N)OC2=C(C(=O)CCC2)C12C(=O)N1CCCc3cccc2c31` (centres undefined) stands -0.258; under `O=S(=O)(NCc1ccccn1)c1cccc2nsnc12`, -0.293; under `CCOC(=O)c1c(C)nc2ncccn12`, -0.404.
`COc1ccc(S(=O)(=O)N2CCSC2c2ccccc2)cc1` (centres undefined) showed a z-score of -0.063.
Under `COc1ccc(CCCc2nnc(SCC(=O)Nc3cccc(C)c3)o2)cc1` stands -0.111; under `CCn1c(SCC(=O)N2CCC(C)CC2)nnc1-c1ccc(S(=O)(=O)N2CCN(C)CC2)cc1`, -0.184.
Then `Cc1ccc2nc(-c3ccc(NC(=O)C(C)N4C(=O)c5ccccc5C4=O)cc3)sc2c1` (centres undefined), with 0.109; and `CC1=C(C(=O)Nc2ccccc2)C(c2ccco2)C(C#N)=C(SCC(=O)Nc2cccc(C)c2C)N1` (centres undefined), with 0.693; and `CC(C)(C)C(=O)OCCn1c(=O)c2cc3c(=O)n(CCOC(=O)C(C)(C)C)c(=O)c3cc2c1=O`, with 0.401.
Under `NC(=O)c1sc2nc3c(c(-c4ccco4)c2c1N)CCC3` stands -0.0701.
Molecule `NS(=O)(=O)c1ccc(NC(=S)NCc2cccc(Cl)c2)cc1` showed a z-score of -0.429.
With `CNS(=O)(=O)c1cccc(C(=O)OCc2cc(=O)n3cc(Br)ccc3n2)c1`, the z-score is -0.283.
Under `CCSCc1nnc(SCC(=O)Nc2cccc(SC)c2)n1C` stands -0.3.
Then `COc1ccc(Cn2c(C)cc3c(c2=O)C(c2cccs2)C(C#N)=C(N)O3)cc1OC` (centres undefined), with -0.055.
As to `CCc1nc(SCC(=O)NNC(=O)C2CCCCC2)c2ccccc2n1`, the z-score is -0.133.
Under `CN(C)c1nc(NCc2ccccc2)nc(SCC(=O)Nc2ccc(Cl)c(Cl)c2)n1` stands -0.191; under `CC(=O)c1cccc(NC(=O)CN2C(=O)COc3ccc(Cl)cc32)c1`, -0.183; under `COc1ccc(CN2C(=O)c3ccccc3C(/C=N\OCc3ccc(F)cc3)C2=O)cc1` (centres undefined), 0.722.
Then `O=C(Nc1cc(Cl)cc(Cl)c1)C(c1ccccc1)N1CCCCC1` (centres undefined), with 0.151; and `CN(c1ccc(OCC(=O)Nc2nc3ccccc3s2)cc1)S(=O)(=O)c1ccccc1`, with -0.348.
The molecule `COc1ccc(/C=N/NC(=O)c2cc(C)on2)c2ccccc12` registered a z-score of -0.147.
Then `COc1ccc(C2CC(c3ccccc3)=NN2C(=O)COC(=O)c2cccc(S(=O)(=O)N3CCOCC3)c2)cc1` (centres undefined), with -0.524.
Under `O=C1N/C(=N/Nc2ccccc2)S/C1=C\c1ccccc1` stands -0.129.
Under `c1cn(CC2(Cn3ccnc3)COC2)cn1` stands active: 3.15; under `Cc1ccc(C(=O)c2cc3ccccc3o2)cc1C`, -0.0576; under `CCCCNC(=O)CSc1nnc(-c2ccc(S(=O)(=O)N3CCCC3)cc2)n1C`, -0.00909.
The molecule `Cc1nn(CC(O)COc2ccc3c(c2)CCC3)c(C)c1C` (centres undefined) returned a z-score of -0.0908.
Under `O=c1c(N2CCOCC2)nsn1Cc1ccccc1` stands -0.0642.
Under `S=c1[nH]nc(-c2cccnc2)n1C1CCCCC1` stands 0.738; under `CSc1ccccc1NC(=S)Nc1cc(C)cc(C)c1`, -0.0199; under `CCN1C(=O)c2cccc3c(S(=O)(=O)Nc4ccccc4)ccc1c23`, -0.865.
Then `Cc1nc(N2CCN(C)CC2)c2c(C)c(C(=O)Nc3ccc(C)c(F)c3)sc2n1`, with -0.555.
In turn, `Cc1ccc(C(=O)Nc2ccccc2C(=O)NC2CCCCC2)cc1S(=O)(=O)N1CCOCC1` displayed a z-score of -0.18.

Source of the values: PubChem BioAssay AID488969 (Vanderbilt High Throughput Screening Facility, 2010).
